In general, % Inhibition refers to the relative decrease from the control value, in per cent.

The values that follow come from ChEMBL document CHEMBL4888484, “Replenishing the malaria drug discovery pipeline: Screening and hit evaluation of the MMV Hit Generation Library 1 (HGL1) against asexual blood stage Plasmodium falciparum ,using a nano luciferase reporter read-out” (2022).

The campaign covered roughly 150,000 compounds. About 540 (0.36%) showed an effect of 50% or more. This is one part of the list.

For the test, the system named is Plasmodium falciparum. Description: Primary screen in NF54 nanoGlo assay, in single point, at 2uM, 72h; a lower Z score goes with more inhibition. Format: functional, Erythrocyte. The following applies: timepoint 72 hour.
With `O=C(c1ccc(Cl)cc1Cl)N(Cc1nc2cc(Cl)ccc2o1)C1CC1`, the “% Inhibition” value worked out at 16% and the Z score is reported as -2.05.

Turning to `CC(=O)N[C@@H](CCC(N)=O)C(=O)NC1(C(C)(C)C)CC1`, the “% Inhibition” value was -3% and the Z score is reported as 0.66.

As to `CCCN(CCO)Cc1ccc(F)cc1F`, the “% Inhibition” value is recorded as -15% and the Z score is reported as 2.25.

For `CC(C(=O)N1CCCC(c2c[nH]nn2)C1)C1CC1` (stereo unspecified), the “% Inhibition” value is -6% and the Z score is recorded as 1.15.

On to `COc1ccc(NC(=O)[C@H]2CC(=O)OC2(C)C)cn1`, for which the “% Inhibition” value is listed as -6% and the Z score was 0.73.

Consider `Cn1nncc1C(=O)NCC1(CO)CCCC1`, for which the “% Inhibition” value was -2% and the Z score is given as 0.27.

`O=C(CC[C@@H]1NC(=O)NC1=O)N[C@H]1CCCN(Cc2ccccc2)C1`: the “% Inhibition” value is reported as -6% and the Z score is 1.1.

As for `O=C1NC[C@@H]2CCC[C@@H](CCOc3ccccc3C(=O)N3CCN(Cc4ccc(Cl)c(F)c4)C[C@@H]13)O2`, the “% Inhibition” value amounted to 10% and the Z score is reported as -1.51.

Regarding `CC(C)[C@H](N)c1nc(Cn2cnc3ccccc32)no1`, the “% Inhibition” value is on record as -1% and the Z score was 0.12.

`COc1cccc(-c2nc(NC3CCCCC3)c3ccccc3n2)c1O`: the “% Inhibition” value was found to be 5% and the Z score is -0.65.

Regarding `Cc1cc(O[C@H]2CCN(S(=O)(=O)CCN3C(=O)CCCC3=O)C2)nc(C)n1`, the “% Inhibition” value is on record as 4% and the Z score was -0.69.

Take `CCc1ccc(S(=O)(=O)C2CS(=O)(=O)CC2N2CCN(Cc3ccccc3)CC2)cc1` (stereo unspecified): the “% Inhibition” value is recorded as -4% and the Z score is 0.5.

In the case of `Cc1nc2c([nH]1)CN(C(=O)NCCc1nc(C)c3c(n1)CCCC3)CC2`, the “% Inhibition” value is -13% and the Z score was 1.99.

On to `CN1CCCCC[C@H]1C(=O)N1CCC2(CCCC2)C1`, for which the “% Inhibition” value is recorded as -6% and the Z score was 1.16.

As to `O=C(c1cc(O)ccn1)N(CC(F)F)CC1CCC1`, the “% Inhibition” value is -3% and the Z score worked out at 0.31.

Take `Cc1ccnc(C(=O)N[C@@]2(C)CCCOC2)n1`: the “% Inhibition” value was -2% and the Z score stood at 0.33.

For the compound `COc1cccc(NC(=O)N[C@H]2CO[C@@H](CN3CCC(C)CC3)[C@@H]2O)c1`, the “% Inhibition” value was found to be 13% and the Z score was -1.56.

For the compound `O=C1CCCCN1CCC(=O)N1CC[C@H](Cc2ccc(=O)[nH]c2)C1`, the “% Inhibition” value was -7% and the Z score turned out to be 0.85.

For `Cc1ccccc1CNC(=O)[C@@]1(C)CCCN(S(=O)(=O)c2ccc(C3CCCCC3)cc2)C1`, the “% Inhibition” value is listed as 9% and the Z score is -1.45.

`O=C(c1c(F)cccc1Cl)N1CC(S(=O)(=O)Cc2ccco2)C1`: the “% Inhibition” value is given as -12% and the Z score came out at 1.58.

For the compound `CCn1ncc(C)c1NC(=O)c1occc1C`, the “% Inhibition” value is listed as -8% and the Z score came to 0.74.

With `CCc1nc(C(=O)NC(C)C2CCCO2)nn1-c1c(Cl)cccc1Cl` (stereo unspecified), the “% Inhibition” value is reported as -2% and the Z score came to 0.24.

On to `Cc1nn(C)c(=O)c(-c2nnn(Cc3noc(C(C)C)n3)n2)c1C`, for which the “% Inhibition” value is given as 3% and the Z score is listed as -0.38.

With `Cc1ccc2nc(-c3ccco3)nc(N3CCN(S(=O)(=O)c4ccccc4)CC3)c2c1`, the “% Inhibition” value is 0% and the Z score is 0.

On to `CC(C)Cc1ccc(CN2CC[C@H](NC(=O)c3ccncc3)[C@@H](O)C2)cc1`, for which the “% Inhibition” value is -13% and the Z score turned out to be 2.4.

For `CCc1cc(C(=O)N2CCC[C@@]3(CCC(=O)N(Cc4cccnc4)C3)C2)no1`, the “% Inhibition” value was -11% and the Z score stood at 1.24.

As to `CCN(CC)S(=O)(=O)c1ccc(C(C#N)C(=O)C2CC2C)nc1` (stereo unspecified), the “% Inhibition” value is given as -9% and the Z score stood at 1.25.

`COCC(=O)N1CCC[C@H](c2nnc3n2CCN(C(=O)c2ccc(OC)cc2C)C3)C1`: the “% Inhibition” value is reported as -14% and the Z score is 2.74.

Take `C[C@@H](C(=O)OC(C)(C)C)c1nc(-c2cnccn2)no1`: the “% Inhibition” value turned out to be 16% and the Z score is -1.91.

Turning to `C=C[C@H]1OCC[C@@H]1NC(=O)C(C)(C)c1cccnc1`, the “% Inhibition” value is on record as 9% and the Z score is reported as -1.14.

As to `C[C@@H](CCCC(C)(C)O)NC(=O)c1nccn1C`, the “% Inhibition” value is -6% and the Z score is reported as 0.93.

Consider `CN(CC(O)COCc1ccc2c(c1)OCO2)CC1CCCO1` (stereo unspecified), for which the “% Inhibition” value was -8% and the Z score is on record as 0.94.

Take `Cc1ncc(-c2nc(CCC(F)(F)F)no2)c(N)n1`: the “% Inhibition” value is -4% and the Z score turned out to be 0.51.

On to `c1ccc(-c2cn3c4ccccc4nc3n2CCCN2CCCC2)cc1`, for which the “% Inhibition” value amounted to 1% and the Z score is on record as -0.14.

In the case of `Cc1cc(S(=O)(=O)N2Cc3cncnc3C2)ccc1F`, the “% Inhibition” value is given as -4% and the Z score is 0.66.

Regarding `OCc1ccc(CNC2CCOC2c2ccccc2)o1` (stereo unspecified), the “% Inhibition” value is given as -11% and the Z score was 0.97.

For the compound `O=C1CCC(=O)N1CCCNc1cc(C(F)F)ncn1`, the “% Inhibition” value was -2% and the Z score was 0.32.

Take `CC1CCCC(N(CC(=O)Nc2ccc(C(N)=O)cc2)Cc2ccc3c(c2)OCO3)C1C` (stereo unspecified): the “% Inhibition” value came to 5% and the Z score is on record as -0.83.

With `COc1cccc(-c2nc(-c3nnn4c3CO[C@H](c3ccccc3Cl)C4)no2)c1OC`, the “% Inhibition” value is reported as -12% and the Z score was found to be 1.87.

Regarding `COc1ccc([C@@]2(c3nc(-c4cccnn4)no3)CC2(C)C)cc1`, the “% Inhibition” value is recorded as -3% and the Z score was 0.53.

As for `CC(C)C1(c2ccccc2)CN(C(=O)C[C@H](C)n2ccnc2)C1`, the “% Inhibition” value is recorded as -14% and the Z score was found to be 2.65.

On to `Cc1ncc2c(n1)CCC[C@@H]2Nc1ccc(Br)cn1`, for which the “% Inhibition” value is -11% and the Z score is listed as 1.16.

Regarding `CCCN(CC#Cc1ccccc1)C[C@H](O)CO`, the “% Inhibition” value was -10% and the Z score is recorded as 1.97.
